Experimental data taken from PubChem BioAssay AID588382 (National Center for Advancing Translational Sciences (NCATS), 2011).
Among all 1,300 compounds or so, about 150 (12%) were called active. Inconclusive results (about 30%) are left out. Calls follow the shape of the dose curve; as a rule, active = well fitted cell-killing curve with a large enough effect; inconclusive = small, poorly fitted or top-dose-only effect, or effect the other way; inactive = flat fitted curve, though single readings scatter. The list shows a part of the results, in another mix than the full data.

Test: qHTS of small molecules that selectively kill Giardia lamblia: Hit Validation in HepG2 cytotox;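 also: compound exposure lasted overnight at 37 deg C; nearly all actives have a fitted effect of over 55% in size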;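 as to activity change, negative = cytotoxicity: viability measured as cellular ATP by ATPLite luminescence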
Settings: cell viability; Potency: HepG2 cytotoxicity; series mostly up to 38.3 µM; activity change, negative = cytotoxicity: at the top concentration
How it was run: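 Counterscreen cytotoxicity: ATPLite luminescence (15 min, room temperature) measured in HepG2 cells exposed overnight at 37 deg C to pin-transferred compound (23 nL) after overnight pre-incubation.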
% is scaled to controls: 0 for no effect and ±100 for the full control effect; potency is read from the fitted curve at half-maximal effect.

Structure (SMILES) | activity change, negative = cytotoxicity | Potency
O=C(NCc1ccccc1CN1CCCC1)c1cccc(S(=O)(=O)N2CCCC2)c1 | inactive: 2.58% | 
COc1cc(Nc2ccc(C)cc2)c([N+](=O)[O-])nc1[N+](=O)[O-] | inactive: 14.5% | 
O=C(Nc1ccc(Cc2ccncc2)cc1)c1ccc([N+](=O)[O-])o1 |  | active: 6.56 µM
CCn1c(CCNC(=O)c2ccc(F)cc2)nc2ccccc21 | inactive: -3.8% | 
O=C(c1cccc(F)c1)N1CCN(c2ccc([N+](=O)[O-])c3cccnc23)CC1 | inactive: -12.1% | 
CC1CCCCC1NC(=O)COc1cccnc1[N+](=O)[O-] (stereo not drawn) | inactive: 1.19% | 
COc1ccc(CN2C(=O)C(CC(C)C)Nc3ncnc(N4CCCCC4)c32)cc1 (stereo not drawn) | inactive: -2.29% | 
Cc1ccc(C(=O)c2c3ccc([N+](=O)[O-])cc3[n+]([O-])n2CCC(N)=O)cc1 | inactive: 19% | 
CC1CCCCC1NC(=O)NC(=O)COC(=O)c1cncc(Br)c1 (stereo not drawn) | inactive: 1.04% | 
COC(=O)[C@@]12CCCCN1[C@H](c1ccc(-c3ccc(C(C)=O)cc3)cc1)[C@@H]1C(=O)N(C)C(=O)[C@@H]12 | inactive: 10.7% | 
O=C(NCCc1ccccc1)c1ccc(CS(=O)(=O)c2ccc(Cl)cc2)o1 | inactive: 0.864% | 
COc1ccc(CNC(=O)COc2cccnc2[N+](=O)[O-])cc1 | inactive: 15.6% | 
Nc1ncnc2c1ncn2C1O[C@H](CO)[C@@H](O)[C@@H]1O (stereo partly drawn) | inactive: 12.7% | 
CC1S/C(=C(\C#N)C(N)=O)N(c2ccc(F)cc2)C1=O (stereo not drawn) | inactive: -24.2% | 
C#CCOCCOCCOCCNc1nc(N2CCN(C(=O)[C@H](CCC(=O)O)n3cc([C@@H](N)CC(N)=O)nn3)CC2)nc(N2CCN(C(=O)[C@H](CCC(=O)O)n3cc([C@@H](N)CC(N)=O)nn3)CC2)n1 | inactive: 9% | 
Cc1ccc(S(=O)(=O)Nc2ccc(C(OC(=O)c3ccccc3[N+](=O)[O-])(C(F)(F)F)C(F)(F)F)cc2)cc1 | inactive: -2.37% | 
CCCSc1nc2c(cnn2-c2ccc(C)c(C)c2)c(=O)[nH]1 | inactive: 0.777% | 
O=C1/C(=C/c2ccncc2)CCC/C1=C\c1ccncc1 |  | active: 4.14 µM
Cc1c(N=Nc2ccc(N(C)C)cc2)c(=O)n(-c2ccccc2)n1C | inactive: 0.797% | 
COc1ccc(NC(=O)c2ccc([N+](=O)[O-])o2)cc1 |  | active: 3.69 µM
CC[C@]1(C(=O)OC)[C@H]2C(=O)N(C)C(=O)[C@H]2[C@H]2CN(C)C(=NC)N21 | inactive: 10.4% | 
Cc1ccc(Nc2nc(=O)c3cc([N+](=O)[O-])ccc3s2)cc1 | inactive: 10.3% | 
CCCCCCSc1ccc([C@H]2N[C@@](Cc3ccccc3)(C(=O)OC)[C@H]3C(=O)N(C)C(=O)[C@@H]23)cc1 | inactive: -6.45% | 
O=[N+]([O-])c1cncc([N+](=O)[O-])c1Nc1cccc(O)c1 | inactive: 27.5% | 

Structure (SMILES) | activity change, negative = cytotoxicity | Potency
CCN(C(=O)C1CCN(S(=O)(=O)c2ccc3c(c2)oc(=O)n3C)CC1)c1cccc(C)c1 | inactive: 4.95% | 
COc1cc(C2C(C(=O)c3ccc(C)o3)=C(O)C(=O)N2c2cc(C)on2)ccc1OCc1ccccc1 (stereo not drawn) | inactive: 7.43% | 
O=[N+]([O-])c1nn(-c2ccc3c(c2)OCCO3)n(O)c1=NC1CCCCC1 | inactive: -2.04% | 
COc1ccccc1NC(=O)COc1cccnc1[N+](=O)[O-] | inactive: 0.838% | 
COc1ccc(OCC(=O)NNC(=O)C2CCN(c3ncnc4sc(C)c(C)c34)CC2)cc1 | inactive: 13% | 
Cc1c(Nc2nc3ccccc3n3cnnc23)cccc1[N+](=O)[O-] | inactive: 11.5% | 
CCS(=O)(=O)Nc1cccc(C2=NN(S(=O)(=O)c3ccc(C)cc3)C(c3ccco3)C2)c1 (stereo not drawn) | inactive: -18.5% | 
CSCCC(NS(=O)(=O)c1ccc2c(c1)OCCO2)C(=O)N(C)Cc1ccccc1F (stereo not drawn) | inactive: 1.53% | 
COc1ccc2c(c1)C1OCCC1C(c1ccco1)N2 (stereo not drawn) |  | active: 10.4 µM
Cc1ccc(SCCNC(=O)c2ccccc2F)cc1 | inactive: 12.2% | 
COc1ccc2oc(C(=O)OC(C)C(=O)NCc3ccccc3)c(C)c2c1 (stereo not drawn) | inactive: 11.9% | 
O=[n+]1c2c(n([O-])c3cc(Br)ccc31)CCCC2 | inactive: 6.84% | 
N#Cc1nc(-c2ccc(OCc3ccccc3)cc2)oc1N1CCC(C(N)=O)CC1 | inactive: -9.71% | 
O=C(Nc1ccc(N2CCN(C(=O)c3ccccc3)CC2)cc1)c1ccc([N+](=O)[O-])o1 |  | active: 4.65 µM
CCc1ccc(S(=O)(=O)Nc2ccc(-c3ccc4nnc(C)n4n3)cc2)s1 | inactive: 2.05% | 
COc1ccc(OC)c(/C=C/c2ccc3ccccc3n2)c1 | inactive: 6.55% | 
CC1=NN(c2nc3ccccc3[nH]2)C(=O)/C1=C/N(C)C |  | active: 0.927 µM
Cc1ccc([N+](=O)[O-])c(C(=O)Nc2cccnc2Cl)c1 | inactive: 23.5% | 
Cc1c(C(=O)c2ccc(Cl)cc2[N+](=O)[O-])c2ccccn2c1CCC#N | inactive: 9.75% | 
Cc1cc(Nc2ccccc2)c2c([N+](=O)[O-])ccc(C)c2n1 | inactive: 24.3% | 
CCCSc1ccc2nc(NC(=O)OC)[nH]c2c1 | inactive: 4.95% | 
CCOC(=O)/C=C/[C@H]1CCc2cccc(Cl)c2O1 | inactive: 17.4% | 
COc1ccc(Cc2noc(CN(C)Cc3ccc(-n4cccn4)cc3)n2)cc1OC | inactive: 3.89% | 
COC(=O)N/N=C/c1ccc([N+](=O)[O-])s1 | inactive: -20.9% | 

Structure (SMILES) | activity change, negative = cytotoxicity | Potency
Cc1cc(C)nc(N/N=C/c2ccc([N+](=O)[O-])o2)n1 | inactive: -16.7% | 
Cc1cc(C)c(-n2[nH]nnc2=S)c(C)c1 | inactive: 3.16% | 
CCN(Cc1ccncc1)C(=O)CC1C(=O)NCCN1Cc1ccc(F)c(F)c1 (stereo not drawn) | inactive: -1.32% | 
CC(NC(=O)c1ccccc1F)c1nnc(SCC(=O)NC2CCCC2)n1C (stereo not drawn) | inactive: 10.3% | 
C(=C\c1nc2ccccc2s1)/c1ccc2c(c1)OCO2 |  | active: 2.07 µM
Cc1ccc(CSc2nnc(Cn3c(=O)sc4ccccc43)n2C)cc1 | inactive: 11.3% | 
COC(=O)[C@]1(C)N[C@H](CN(C)S(=O)(=O)c2ccc(-c3ccccc3)cc2)[C@@H]2C(=O)N(C)C(=O)[C@@H]21 | inactive: 16.4% | 
O=C(CNC(=O)Cc1ccccc1)N=Nc1c(O)[nH]c2ccc(Br)cc12 | inactive: 5.1% | 
Cn1cccc1C1CCCN1CC(=O)Nc1ccc(F)c(F)c1F (stereo not drawn) | inactive: 4.65% | 
Cc1onc(-c2ccccc2Cl)c1C(=O)NNC(=O)c1ccc(F)cc1 | inactive: 19.2% | 
O=[N+]([O-])c1nn(-c2ccc3c(c2)OCCO3)n(O)c1=NCCC1=CCCCC1 | inactive: 1.64% | 
CC(C)CC(=O)NC(=S)NNC(=O)c1ccc([N+](=O)[O-])cc1 | inactive: -5.24% | 
COc1ccc(S(=O)(=O)Nc2c(O)c3ccccc3oc2=O)cc1 | inactive: 15.8% | 
O=c1[nH][nH]c(-c2ccccc2)c1C=Nc1ccc(OC(F)(F)F)cc1 | inactive: 14.5% | 
N=NC(=O)c1ccccc1Nc1c(O)[nH]c2ccccc12 |  | active: 16.5 µM
CCC(C(=O)N1CCOCC1)n1nc(C)n2c(cc3cc(C)ccc32)c1=O (stereo not drawn) | inactive: 7.22% | 
O=C(O)c1cccc(CN2C(=O)S/C(=C/c3ccccc3[N+](=O)[O-])C2=O)c1 | inactive: 8.95% | 
N=C1C(c2ccccc2)=C(O)CN1c1cccc(S(=O)(=O)N2CCOCC2)c1 | inactive: 17.3% | 
Cc1ccc(S(=O)(=O)N2[C@@H](c3ccccc3)C(C(=O)O)=CC[C@H]2c2cccc(Cl)c2)cc1 | inactive: 6.16% | 
C[C@]12c3[nH]c4ccc(Cl)cc4c3CCN1C(=O)[C@@H](CC(=O)NCCN1CCOCC1)C[C@@H]2C(=O)N1CCOCC1 | inactive: 7.31% | 
COc1cccc([C@@H]2CC=C(C(=O)O)[C@H](c3ccccc3F)N2S(=O)(=O)c2ccc(C)cc2)c1 | inactive: 8.72% | 
CC(C)(C)[C@H](N)C(=O)N[C@H]1CCC2C3CC=C4C[C@@H](O)CC[C@]4(C)C3CC[C@@]21C (stereo partly drawn) |  | active: 2.33 µM
COc1ccc(CN(C(=O)CSc2nnc(-c3ccc(OC)c(OC)c3)o2)c2ccc(F)cc2)cc1 | inactive: 5.51% | 
Cc1ccc(OCC(=O)N(Cc2cccc(Cl)c2)C2CCS(=O)(=O)C2)cc1C (stereo not drawn) | inactive: 0.826% | 

Structure (SMILES) | activity change, negative = cytotoxicity | Potency
Cn1cc([N+](=O)[O-])c(C(=O)Nc2sc3c(c2C#N)CCC3)n1 |  | active: 2.33 µM
COc1ccc(CCNC(=O)C23CCC(C)(C(=O)C2=O)C3(C)C)cc1OC (stereo not drawn) | inactive: 7.19% | 
COc1cc2c(cc1OC)-c1c(OC)c(OC)cc3ccnc(c13)C2=O | inactive: -4.96% | 
CN(CCc1ccccc1)C(=O)c1cccc(NC(=O)Cc2cccc(NC(=O)C3CCN(C(=O)C4CCCC4)CC3)c2)c1 | inactive: 12.8% | 
CN(C(=O)c1cc([N+](=O)[O-])ccc1NCc1cccnc1)c1ccccc1 | inactive: 14.7% | 
O=C(Nc1ccc2oc(-c3cccnc3)nc2c1)c1ccc([N+](=O)[O-])o1 |  | active: 13.1 µM
O=c1cc(-c2ccccc2)[nH]c2cc(Cl)ccc12 | inactive: 12.5% | 
Cc1cnc([N+](=O)[O-])n1CCOC(=O)NC(=O)c1ccc(C(F)(F)F)cc1 | inactive: 16.2% | 
COc1ccc(S(=O)(=O)N2CCCCC2)cc1NC(=O)c1ccc([N+](=O)[O-])o1 |  | active: 3.29 µM
CCC1=C(OC(=O)N(CC)CC)N2C(=O)OC(=NCC(=O)OC)[C@]2(C)[C@H]2C1=CC[C@H]1C(=O)N(CC)C(=O)[C@H]12 | inactive: -4.65% | 
O=C(Nc1ccc(N2CCN(C(=O)c3ccc(Cl)cc3)CC2)cc1)c1ccc([N+](=O)[O-])o1 |  | active: 3.29 µM
NC(=O)c1c(NC(=O)c2ccc([N+](=O)[O-])o2)sc2c1CCCC2 |  | active: 11.7 µM
COc1cc(NC(=O)c2ccc([N+](=O)[O-])o2)ccc1NC(=O)c1cccs1 |  | active: 14.7 µM
O=C(NCC(c1ccco1)N1CCCC1)c1ccc(S(=O)(=O)Nc2ccccc2Cl)cc1 (stereo not drawn) | inactive: -0.386% | 
Cc1cccc(C)c1OCC(=O)N(Cc1cccs1)C1CCS(=O)(=O)C1 (stereo not drawn) | inactive: 3.77% | 
CCn1c(=O)n(CC)c2cc(N)ccc21 | inactive: 16.5% | 
O=C(NCC1CCN(Cc2ccc(F)cc2)CC1)Nc1cc(F)ccc1F | inactive: 0.846% | 
COc1ccc(C(=O)C(C)OC(=O)CNC(=O)C2CCCCC2)cc1 (stereo not drawn) | inactive: 22.2% | 
CCOP(=O)(OCC)c1cccc(P(=O)(c2ccccc2)c2ccccc2)c1O | inactive: 18.3% | 
Cc1cc(N/N=C/c2ccc([N+](=O)[O-])o2)nc2ccccc12 | inactive: -6.07% | 
COc1cc(/C=C2\SC(=O)N(Cc3ccc(F)cc3)C2=O)cc([N+](=O)[O-])c1O | inactive: -2.93% | 
